This is one part of the list. Sequences were assembled here from the parent chain. Values near 0.05 are background.
B1: TEV protease; numbered along this chain (parent)
chain: MGESLFKGPRDYNPISSSICHLTNESDGHTTSLYGIGFGPFIITNKHLFRRNNGTLVVQSLHGVFKVKDTTTLQQHLVDGRDMIIIRMPKDFPPFPQKLKFREPQREERICLVTTNFQTKSMSSMVSDTSCTFPSGDGIFWKHWIQTKDGQCGSPLVSTRDGFIVGIHSASNFTNTNNYFTSVPKNFMELLTNQEAQQWVSGWRLNADSVLWGGHKVFMVKPEEPFQPVKEATQL

Variants of: B1
Assay: raw area under fraction-flipped curve 0-4 h after induction (AUC4h, not background-subtracted), DNA-recorder readout of cleavage of the substrate (dimensionless); higher = more cleavage of the substrate by the protease variant
Conditions: temperature: 34 °C; time window: 0-4 h after rhamnose induction
Experimental: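 In vivo DNA recorder in E. coli TOP10(DE3) ΔrhaA at 34 °C. Each TEVp single-site mutant (parent TEVp 0) is paired with a single-site variant of the 7-mer TEVs (canonical ENLYFQ|S). The substrate sits between flexible linkers in a Bxb1-sfGFP-TEVs-SsrA fusion, so cleavage stabilises Bxb1 and speeds flipping of a recombination array, read by NGS. The value is the raw area under the fraction-flipped curve over 0-4 h after rhamnose induction (AUC4h), with ≥20 reads per time point. It is not background-subtracted; inactive controls average about 0.047.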
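Also: Bxb1 expression induced with 0.2% (w/v) L-rhamnose at OD600 near 0.5, cultures sampled hourly, flipped fraction per protease–substrate barcode pair counted by paired-end Illumina sequencing.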

| Variant | area with substrate ENLAFQS | area with substrate ENLCFQS | area with substrate ENLDFQS | area with substrate ENLEFQS | area with substrate ENLGFQS | area with substrate ENLHFQS | area with substrate ENLKFQS | area with substrate ENLNFQS | area with substrate ENLPFQS | area with substrate ENLQFQS | area with substrate ENLRFQS | area with substrate ENLSFQS | area with substrate ENLWFQS | area with substrate ENLFFQS | area with substrate ENLIFQS | area with substrate ENLLFQS | area with substrate ENLVFQS | area with substrate ENLMFQS | area with substrate ENLTFQS |
| --- | --- | --- | --- | --- | --- | --- | --- | --- | --- | --- | --- | --- | --- | --- | --- | --- | --- | --- | --- |
| T31S | 0.0616 | 0.0824 | 0.0474 | 0.0781 | 0.0515 | 0.0564 | 0.0802 | 0.0622 | 0.0587 | 0.0522 | 0.0768 | 0.0548 | 0.0714 |  |  |  |  |  |  |
| T31D | 0.0708 | 0.0759 | 0.0704 | 0.0614 |  | 0.0549 | 0.0848 | 0.0612 | 0.0627 | 0.0639 | 0.078 | 0.0622 |  | 0.0805 | 0.0901 |  |  |  |  |
| T31N | 0.0624 | 0.0942 | 0.0624 | 0.061 |  | 0.0536 | 0.0782 | 0.0642 | 0.0621 | 0.0496 | 0.072 | 0.0565 | 0.0681 | 0.0873 | 0.0803 | 0.0646 | 0.0877 |  |  |
| D11N | 0.0683 | 0.0673 | 0.0692 | 0.0538 |  | 0.0719 | 0.0812 | 0.0713 | 0.0727 | 0.0694 |  | 0.0746 | 0.0756 | 0.0745 |  |  |  | 0.0728 |  |
| D11Y | 0.0684 | 0.0743 | 0.0601 | 0.0713 | 0.0697 | 0.0629 | 0.0781 | 0.0671 | 0.0608 | 0.0613 |  | 0.065 | 0.059 | 0.0887 | 0.085 | 0.0819 | 0.0781 |  | 0.0675 |
| D27L | 0.0623 | 0.067 | 0.06 | 0.0542 |  | 0.0639 | 0.0758 | 0.0627 | 0.0623 | 0.0486 | 0.0477 | 0.0668 | 0.0628 | 0.0746 | 0.0758 | 0.0639 | 0.0961 |  |  |
| F6Y | 0.0704 | 0.0546 | 0.0705 | 0.0597 | 0.0693 | 0.0659 | 0.0733 | 0.0786 |  |  |  | 0.0562 |  |  |  | 0.0707 |  |  |  |
| F6V | 0.0846 | 0.0854 | 0.0667 | 0.0522 |  | 0.105 |  | 0.0627 |  |  |  | 0.0694 | 0.0843 | 0.0962 |  |  | 0.0982 |  |  |
| G28K | 0.067 |  | 0.0552 | 0.0628 |  | 0.0774 | 0.0763 |  | 0.0622 | 0.0675 | 0.0644 |  | 0.0679 | 0.0733 |  |  |  |  | 0.0651 |
| N45C | 0.0782 |  | 0.0708 | 0.0517 | 0.0842 | 0.0811 |  | 0.0793 |  |  | 0.0777 | 0.0515 | 0.0583 | 0.119 | 0.0968 | 0.0739 |  |  |  |
| N45M | 0.058 | 0.0722 | 0.0657 | 0.0624 | 0.0695 | 0.0839 | 0.065 | 0.0638 | 0.0664 | 0.0614 | 0.0683 | 0.0498 | 0.0733 | 0.0797 | 0.0419 | 0.0516 | 0.0634 | 0.0413 |  |
| N45R | 0.0594 | 0.0537 | 0.0562 | 0.0656 |  | 0.0589 | 0.0613 | 0.0596 | 0.0585 | 0.0635 |  | 0.0714 |  | 0.0706 | 0.0619 |  |  |  | 0.0642 |
| F41T | 0.0521 | 0.059 | 0.0605 | 0.0633 |  | 0.056 | 0.0748 | 0.0595 | 0.065 |  | 0.0817 | 0.0503 | 0.0598 | 0.0693 | 0.0846 | 0.0618 |  |  |  |
| P40Y | 0.0611 | 0.0724 | 0.0526 | 0.0598 |  | 0.0394 | 0.0713 | 0.0696 | 0.0549 |  | 0.0753 | 0.0562 |  | 0.118 | 0.0682 | 0.0729 | 0.0847 |  | 0.0768 |
| L33W | 0.069 |  | 0.0642 | 0.0723 | 0.0373 | 0.056 |  | 0.0643 | 0.0605 | 0.0667 | 0.0647 | 0.0654 | 0.0493 | 0.0662 | 0.0609 |  |  | 0.073 |  |
| L33G | 0.065 | 0.0464 | 0.068 | 0.0458 | 0.07 | 0.0652 | 0.0679 | 0.0569 | 0.0626 | 0.059 | 0.0739 | 0.0675 | 0.0634 | 0.0847 | 0.0697 |  | 0.0903 | 0.0622 |  |
| P9Y | 0.0954 |  | 0.0605 | 0.0771 | 0.0859 |  | 0.0752 | 0.0551 |  | 0.0772 |  | 0.059 |  | 0.0903 | 0.0042 | 0.0759 | 0.111 |  |  |
| S4W | 0.0609 |  | 0.0513 |  |  | 0.0678 | 0.0691 | 0.0617 | 0.0745 |  | 0.0554 | 0.0538 |  | 0.0496 | 0.0932 | 0.0634 |  |  | 0.0458 |
| L22N | 0.0334 | 0.0448 | 0.0469 |  | 0.063 | 0.0508 | 0.0516 | 0.0481 | 0.0478 | 0.0509 | 0.0453 |  | 0.0708 | 0.0603 | 0.0348 |  | 0.0473 |  |  |
| H21L | 0.0726 | 0.0734 | 0.0649 | 0.0688 | 0.0688 | 0.0725 | 0.0753 | 0.0684 |  |  |  | 0.0537 |  | 0.079 | 0.116 | 0.0656 | 0.0905 |  |  |
| N24M | 0.0668 |  |  |  | 0.0638 |  | 0.0679 | 0.0796 | 0.0584 |  |  |  |  | 0.0574 |  | 0.0888 |  | 0.0814 | 0.088 |
| Y12G | 0.0606 |  | 0.057 | 0.0932 | 0.0789 | 0.067 | 0.0701 | 0.0635 | 0.0548 |  | 0.0711 | 0.0472 | 0.0583 | 0.0608 |  | 0.0712 | 0.0731 |  | 0.0794 |
| G37M | 0.0589 |  | 0.0563 | 0.0433 |  | 0.0491 | 0.0653 | 0.0778 | 0.0551 | 0.0668 |  | 0.0538 |  | 0.0571 | 0.0265 |  | 0.0723 | 0.0593 |  |
| E25D | 0.067 |  | 0.0727 | 0.0581 |  | 0.0494 | 0.0749 | 0.0608 | 0.0775 | 0.0804 |  | 0.0617 | 0.05 | 0.0898 | 0.0823 |  |  |  | 0.0805 |
| E25V | 0.0701 |  | 0.0681 | 0.0633 | 0.0661 | 0.0684 | 0.0863 | 0.0615 | 0.0518 |  | 0.0802 | 0.0645 | 0.056 | 0.103 | 0.0807 | 0.0704 | 0.0738 | 0.0813 |  |
| T23H | 0.0637 | 0.0582 |  | 0.0543 | 0.0665 | 0.0709 | 0.0584 | 0.0691 | 0.068 |  | 0.0764 | 0.0601 |  | 0.084 | 0.0755 | 0.0598 | 0.0834 |  |  |
